# Data taken from paper PMC6919601, “Identification of Plasmodium dipeptidyl aminopeptidase allosteric inhibitors by high throughput screening” (PLoS ONE, 2019).
# Out of some 110,000 compounds screened, about 230 (0.21%) showed an effect of 50% or more. This is one part of the list.
# Molecular target: DPAP1 (Plasmodium falciparum, UniProt Q8IIJ9)
# Assay: primary screen, percent inhibition; read by cleavage of a fluorogenic dipeptide substrate; higher = more effect of the substance
# Set-up: species or system P. falciparum D10 trophozoite lysates; single well
# 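Also: 30 min substrate incubation versus DMSO and 10 µM JCP410 controls.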
# Sequence of DPAP1 (Q8IIJ9 whole entry, looked up): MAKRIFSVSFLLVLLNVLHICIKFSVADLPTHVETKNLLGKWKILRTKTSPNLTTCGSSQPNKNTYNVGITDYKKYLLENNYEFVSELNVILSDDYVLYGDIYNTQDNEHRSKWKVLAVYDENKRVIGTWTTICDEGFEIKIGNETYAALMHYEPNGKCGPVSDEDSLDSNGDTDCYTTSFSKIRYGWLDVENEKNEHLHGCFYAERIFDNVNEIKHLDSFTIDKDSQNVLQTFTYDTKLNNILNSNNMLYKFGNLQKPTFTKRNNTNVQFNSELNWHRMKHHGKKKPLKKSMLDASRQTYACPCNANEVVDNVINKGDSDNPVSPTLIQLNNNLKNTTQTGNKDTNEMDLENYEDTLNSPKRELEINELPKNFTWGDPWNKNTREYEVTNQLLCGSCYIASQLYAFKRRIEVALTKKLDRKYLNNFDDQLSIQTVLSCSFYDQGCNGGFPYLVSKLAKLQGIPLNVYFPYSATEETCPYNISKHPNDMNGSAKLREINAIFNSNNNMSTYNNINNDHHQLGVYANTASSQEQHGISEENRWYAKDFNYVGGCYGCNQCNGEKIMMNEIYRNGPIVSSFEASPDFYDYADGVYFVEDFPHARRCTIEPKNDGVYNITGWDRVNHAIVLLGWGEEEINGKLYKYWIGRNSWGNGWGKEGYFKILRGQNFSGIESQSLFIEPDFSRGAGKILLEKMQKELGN
row,Structure (SMILES),% Inhibition @ 10 uM
1,Cc1ccc(OCC(O)CNC(C)C)cc1 (stereo not drawn),-2.51%
2,c1ccc(CCN2CCC(NC3CC3)CC2)cc1,-5.11%
3,CN(c1cccc(NC(=O)CCSc2ccc(Cl)cc2)c1)S(C)(=O)=O,-5.13%
4,CCOc1ccc2c(C(F)(F)F)cc(=O)oc2c1C,2.89%
5,CN1CCN(C2=C(Cl)C(=O)N(c3cccc(Cl)c3)C2=O)CC1,-2.53%
6,CCn1cc(CCCC(=O)NCCCN2C(C)CCCC2C)c2ccccc21 (stereo not drawn),6.84%
7,Cc1ccc(NC(=O)C2CCCN(S(=O)(=O)c3c(C)noc3C)C2)nc1 (stereo not drawn),2.39%
8,COc1ccc(OC)c(-c2cc(C(=O)Nc3ccccc3C(N)=O)c3ccccc3n2)c1,2.92%
9,Cc1ccc(C)c(S(=O)(=O)NCC(=O)Nc2ccccc2F)c1,-3.83%
10,CN(C)c1ccc(/C=C/CN2CCCCCC2)cc1,0.0792%
11,CC(=O)c1cccc(-n2nnnc2S(=O)(=O)Cc2cccc(Cl)c2)c1,-0.0678%
12,CCN(Cc1ccccc1)C(=O)[C@H]1[C@@H]2C[C@@H]3[C@H]1C(=O)O[C@@H]3C2,-2.92%
13,CC(C)Oc1ccc(C(=O)Nc2cccnc2Cl)cc1,-3.34%
14,COc1ccc(S(=O)(=O)N(C)CC(=O)NCc2ccncc2)cc1,-9.29%
15,O=c1oc2ccc([N+](=O)[O-])cc2cc1-c1nc2ccccc2o1,2.6%
16,NCCc1c(C(=O)O)[nH]c2ccc(OCc3ccccc3)cc12,6.24%
17,N#CC1=C(N)Oc2c(c(C(F)(F)F)nn2-c2ccccc2)C1c1c(F)cccc1Cl (stereo not drawn),-0.436%
18,Cc1cc(NS(=O)(=O)c2ccc(NC(=O)COc3ccccc3C(C)(C)C)cc2)no1,9.33%
19,Cc1cc(C(F)F)n2nc(C(=O)Nc3cnn(Cc4ccc(F)cc4)c3)nc2n1,0.778%
20,COC(=O)c1sc2nc(C)c(C)c(C)c2c1N,-3.77%
21,CCc1ccc(C2c3c(-c4c(C)cc(C)cc4O)n[nH]c3C(=O)N2CCO)cc1 (stereo not drawn),1.67%
22,O=C(Nc1ccc(S(=O)(=O)N2CCCCCC2)cc1)C1CCCCC1,4.57%

row,Structure (SMILES),% Inhibition @ 10 uM
1,Cc1cc(C(F)(F)F)c(C#N)c(S)n1,82.2%
2,CCCS(=O)(=O)N1CCC(C(=O)Nc2ccccc2F)CC1,-1.65%
3,Cc1ccccc1OCCCN1CCCC1,3.48%
4,CCn1c2ccccc2c2cc(CN3CCOCC3)ccc21,-3.15%
5,O=C(NCc1ccco1)c1cccnc1SCc1ccccc1Cl,11.4%
6,Cc1ccc(Cl)c(OCCN2CCNCC2)c1,6.45%
7,COc1cccc(C2CC(C(F)(F)F)n3ncc(C(=O)Nc4cccnc4)c3N2)c1 (stereo not drawn),3.35%
8,CCOC(=O)c1[nH]c(C)c(C(=O)NC(C)(C)C)c1C,0.0579%
9,COCCN(Cc1ccco1)C(=O)C1CCN(c2nc(-c3ccc(OC)cc3)no2)CC1,7.86%
10,COCCNC(=O)c1cc2nc(-c3ccccc3)cc(-c3ccccc3)n2n1,1.25%
11,Cc1ccc2c(=O)cc(C(=O)N(Cc3ccccc3)C3CCS(=O)(=O)C3)oc2c1 (stereo not drawn),-5.08%
12,CCCCCCNC(=O)c1ccc(OC)cc1,-2.66%
13,Cc1cccc(OCCCn2ccnc2)c1C,2.76%
14,COc1ccc2[nH]c3c(c2c1)CCNC3c1ccccc1Cl (stereo not drawn),2.24%
15,COc1ccc(NC(=O)c2ccccc2N(C)S(=O)(=O)c2ccccc2)cc1,-1.6%
16,Cc1oc(C)c(-c2c(C)oc(C)c2C(=O)O)c1C(=O)O,-7.27%
17,CCN(CC)CC(=O)c1c[nH]c2ccccc12,4.55%
18,C=CCn1c(SCc2nc3ccccc3[nH]2)nnc1-c1ccccc1,2.94%
19,CC(=O)Nc1ccc(C(=O)Nc2ccc(OCC(=O)O)cc2)cc1,5.63%
20,CC(C)C[C@H](NC(=O)C1CCC(C(C)(C)C)CC1)C(=O)NCC#N (stereo partly drawn),0.174%
21,CC1=C(C(=O)OC2CCCC2)C(c2ccccc2F)NC(=O)N1 (stereo not drawn),0.162%
22,CCN(Cc1ccccc1)C(=O)c1ccc(CS(=O)c2ccc(OC)cc2)o1 (stereo not drawn),-3.32%

row,Structure (SMILES),% Inhibition @ 10 uM
1,Cc1nn(C(C)C(=O)N2CCN(Cc3ccccc3)CC2)c(=O)c2c1sc1ccccc12 (stereo not drawn),-0.856%
2,Cc1ccc(/C=c2\sc3nnc(-c4ccc(Cl)cc4)n3c2=O)o1,-3.64%
3,CCCC1=C(C(=O)OCC)C(c2ccc(F)c(Br)c2)C(C#N)=C(N)O1 (stereo not drawn),-5.65%
4,CC1=NNC(=O)CC1,-3.67%
5,Cc1sc2nc(-c3ccc(C(C)(C)C)cc3)oc(=O)c2c1C,-10.1%
6,CCCc1nc2nc(C)c(NS(=O)(=O)Cc3ccccc3)c(O)n2n1,4.47%
7,N#C/C(=C\c1ccc(O)cc1)c1nc(C2CC2)cs1,-4.08%
8,Cc1ccccc1Cn1c(CN2CCCCC2C)nc2c1c(=O)n(C)c(=O)n2C (stereo not drawn),1.23%
9,O=C(O)CCCC(=O)Nc1cccc(Oc2ccc3c(c2)C(=O)N(c2ccccc2)C3=O)c1,3.89%
10,CCCc1nc2oc3c(-c4ccccc4)c(C(=O)O)c(C)nc3c2c2c1COC(C)(C)C2,0.685%
11,CN(C)c1ccc(-c2nc3cc(N)ccc3o2)cc1,4.36%
12,Cc1ccc(NS(=O)(=O)c2ccc(NC(=O)CN3C(=O)c4cccc5cccc3c45)cc2)cc1,3.84%
13,COc1cc(NC(=O)C(C)Oc2ccccc2)cc(OC)c1 (stereo not drawn),-2.8%
14,CC(=O)CSc1nc2ccccc2o1,5.29%
15,COc1cccc(/C=C2/SC(=N)N(c3nonc3N)C2=O)c1,1.13%
16,Cc1cc(OCc2noc(-c3cccnc3)n2)ccc1Cl,2.41%
17,CNC(=O)/C(=C\c1ccccc1)NC(=O)c1ccc(Br)cc1,-4.48%
18,CCOC(=O)C1=C(C)OC(N)=C(C#N)C1c1ccc(OC)c(C)c1 (stereo not drawn),-3.13%
19,COc1ccccc1CNC(=O)Cc1c(C)c2cc3c(C)coc3cc2oc1=O,2.54%
20,CC(C)C[C@H](NC(=O)c1cccc(-c2ncc[nH]2)c1)C(=O)NCC#N,-5.64%
21,Cc1ccc2nc(NC(=O)CC(C)C)sc2c1,-5.13%
22,Cc1sc2ncnc(N3CCCCCC3)c2c1C,-4.21%
